Results on 102 molecules are retold here after paper PMC6919601, “Identification of Plasmodium dipeptidyl aminopeptidase allosteric inhibitors by high throughput screening” (PLoS ONE, 2019).

Where “and” joins values, the source holds several entries; their conditions need not be identical. Identical values can stand only once. The campaign covered roughly 110,000 compounds. About 230 (0.21%) showed an effect of 50% or more. This is one part of the list.
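Further: 30 min substrate incubation versus DMSO and 10 µM JCP410 controls.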

Sequence of DPAP1 (Q8IIJ9 whole entry, looked up): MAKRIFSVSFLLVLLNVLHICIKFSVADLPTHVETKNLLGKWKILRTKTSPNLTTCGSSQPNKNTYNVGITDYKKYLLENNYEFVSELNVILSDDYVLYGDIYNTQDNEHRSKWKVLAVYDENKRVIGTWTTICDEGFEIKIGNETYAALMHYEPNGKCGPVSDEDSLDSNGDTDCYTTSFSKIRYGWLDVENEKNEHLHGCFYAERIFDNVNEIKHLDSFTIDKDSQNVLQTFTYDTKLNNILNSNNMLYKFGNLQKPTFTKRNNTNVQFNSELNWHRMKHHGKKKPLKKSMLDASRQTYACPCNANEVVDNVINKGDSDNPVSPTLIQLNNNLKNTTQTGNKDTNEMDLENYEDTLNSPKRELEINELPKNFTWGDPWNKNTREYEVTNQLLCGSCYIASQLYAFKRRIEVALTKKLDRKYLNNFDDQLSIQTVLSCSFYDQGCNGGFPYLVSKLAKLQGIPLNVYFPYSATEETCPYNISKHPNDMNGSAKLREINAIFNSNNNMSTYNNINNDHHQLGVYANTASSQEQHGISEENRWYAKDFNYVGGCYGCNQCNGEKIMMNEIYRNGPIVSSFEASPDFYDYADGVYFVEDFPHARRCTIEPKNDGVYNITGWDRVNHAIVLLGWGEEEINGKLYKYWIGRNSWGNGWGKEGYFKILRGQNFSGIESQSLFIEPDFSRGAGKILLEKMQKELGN

The experiment addresses DPAP1 (Plasmodium falciparum, UniProt Q8IIJ9). The experiment can be described thus: primary screen, percent inhibition; read by cleavage of a fluorogenic dipeptide substrate; higher = more effect of the substance. More on the design: species or system P. falciparum D10 trophozoite lysates; single well.
Consider `CCc1ccc(-c2[nH]nc3nc(-c4ccccc4)cc(C(=O)O)c23)cc1`, for which the “% Inhibition @ 10 uM” value is given as -6.37%.
The same measure for `Cc1cc(C)nc(N2CC(=O)N(C)C2=N)n1`: -0.711%; for `Cc1ccc2c(c1)cc1c(=O)n(CC(=O)NC3CCCC(C)C3C)nc(C)n12` (stereo not drawn): -7.47%.
Under `Cc1ccc(Nc2nc(-c3ccc(Br)cc3)cs2)cc1Cl` stands -3.79%; under `O=C(CCCCCNc1ccccc1)Nc1ccccc1`, 16.5%; under `O=C(O)c1ccccc1N1C(=O)C2CC=CCC2C1=O` (stereo not drawn), -3.69%.
Under `Cc1ccc2[nH]ncc2c1` stands 1.68%.
As for `COc1ccc(/C=N/n2cnc3c4cc(OC)ccc4nc-3c2O)cc1`, the “% Inhibition @ 10 uM” value is listed as -5.28%.
The same measure for `C=CCOC(=O)C1=C(C)NC(=O)NC1c1ccccc1F` (stereo not drawn): 1.13%; for `CO/C(O)=C1\C(C)=NC2=C(C(=O)CC(c3ccccc3)C2)C1c1ccc(C)o1` (stereo not drawn): 5.7%.
The same measure for `CC1CCCCN1C(=O)Nc1ccccc1` (stereo not drawn): -0.13%.
The same measure for `CN1C(C(=O)NC(C)(C)C)=CC(c2ccc(F)cc2)=NS1(=O)=O`: -1.06%; for `COCCCNC(=O)C1CCCN(S(=O)(=O)N2CCC(C)CC2)C1` (stereo not drawn): -6.88%.
`CC1(C)CC(=O)c2c(nc3c(c2-c2ccccc2)C(=O)CC(C)(C)C3)C1`: the “% Inhibition @ 10 uM” value is 1.24%.
Under `Cc1cccc(NC(=O)c2sc3nc4n(c(=O)c3c2C)CCCCC4)n1` stands -2.88%.
The same measure for `O/N=C1\c2ccccc2-c2c(F)c(F)c(F)c(F)c21`: -1.97%; for `CCn1c(=N)n(CC(=O)c2cccs2)c2ccccc21`: -0.0619%; for `Cc1ccc(Cc2nnc(C(=O)NCc3ccco3)o2)cc1`: -7.42%.
On to `O=C(O)C1CCC(CNCc2ccccc2Cl)CC1` (stereo not drawn), for which the “% Inhibition @ 10 uM” value is on record as -1.99%.
For `CCCN(CC(=O)Nc1c(C)cccc1CC)C(=O)SCC`, the “% Inhibition @ 10 uM” value came out at 0.214%.
Under `COc1cc(OC)c(OC)cc1CN1CCN(C2CCC(C)CC2)CC1` (stereo not drawn) stands -4.69%; under `CCCOc1ccc(C(=O)NCCCN(C)C)cc1`, 5%.
Under `CCc1ccc(-c2nc(CSCC(=O)NCCCSCCC(C)C)c(C)o2)cc1` stands -6.4%; under `COc1ccc(NC(=O)c2cc(Cl)ccc2OC)c(OC)c1`, -0.884% and -6.34%.
Under `COc1ccc(NC(=O)c2ccc(C(F)(F)F)cc2)cc1` stands -5.3%.
For the molecule `CCc1ccc(CN2CCN(Cc3ccccc3)CC2)cc1`, the “% Inhibition @ 10 uM” value is recorded as -0.0404%.
The same measure for `COC(=O)C1=NN(c2nc(C)c(OC)[nH]2)C(=O)C1`: -0.0108%.
Under `Cc1cc(C)c(OCC(=O)N(Cc2ccccc2F)C2CCS(=O)(=O)C2)c(C)c1` (stereo not drawn) stands 0.366%; under `O=c1c2ccccc2nc(NC2CCCCC2)n1-c1ccccc1`, 5.48% and -3.45%; under `c1ccc(CN2CCN(Cc3cccnc3)CC2)cc1`, -6.82%.
Under `CC(NC(=O)CCN1C(=O)c2ccccc2C1=O)c1ccc2c(c1)CCCC2` (stereo not drawn) stands -2.29%; under `N#Cc1ccccc1NC(=O)c1cccc(C(=O)Nc2ccccc2C#N)c1`, 3.32%; under `COCCNC(=O)C1=C(C)C(=O)OC12CCC(C)CC2` (stereo not drawn), -5.58%.
Take `CCN1CCN(c2cc(SC(C)C)nc(-c3ccc(OC)cc3)n2)CC1`: the “% Inhibition @ 10 uM” value stood at 2.08%.
Under `CCOC(=O)C1=CN(C)C=C(C(=O)OCC)C1c1cc(OC)c(OC)cc1OC` stands 0.219%; under `COc1ccc(S(N)(=O)=O)cc1C(=O)NCCCN1CCN(c2cccc(Cl)c2)CC1`, -16.5%.
On to `N#CCc1ccc(NC(=O)COc2ccc3c(c2)CCC3)cc1`, for which the “% Inhibition @ 10 uM” value is on record as 5.39%.
As for `N#CC1=C(N)Oc2ccc3ccc(O)cc3c2C1c1ccc(Cl)cc1` (stereo not drawn), the “% Inhibition @ 10 uM” value came out at 1.35%.
Under `COc1cccc(/C=C(\NC(=O)c2ccccc2)C(=O)Nc2cccc(O)c2)c1OC` stands -5.14%; under `CC(C)c1ccccc1OCC(=O)Nc1sc2c(c1C(N)=O)CCCC2`, 1.57%.
In the case of `COc1ccc2c(CNCc3cccc(Cl)c3)c(C(=O)O)n(Cc3ccccc3F)c2c1`, the “% Inhibition @ 10 uM” value was 1.17%.
The same measure for `COc1ccc(Cl)cc1NC(=O)CN(CCc1ccccc1)S(C)(=O)=O`: 1.17%; for `COc1ccccc1C1CC(=O)N=C(NC(C)=O)N1` (stereo not drawn): -0.212%.
Under `Cc1nn(-c2ccccc2)c(O)c1-c1nnc2c(=O)n(C)c(=O)n(C)c2n1` stands 2.57%; under `Cc1ccc(C(C(=O)NC2CCCCC2)N2CCOCC2)cc1` (stereo not drawn), 2.06%.
The same measure for `O=C(CSCc1cccc(Br)c1)NC1CCCCC1`: 6.31%; for `CCOC(=O)N1CCN(C(=O)c2ccc(N(C)S(=O)(=O)c3ccccc3)cc2)CC1`: -3.76%; for `O=C(NCCO)c1nc[nH]c1C(=O)NCCO`: 8.68%.
As for `COc1ccc2c(c1)OCC/C2=N\OC(=O)c1ccccc1F`, the “% Inhibition @ 10 uM” value was found to be 3.16%.
Under `CC(C)(C)c1ccc(OCC(=O)Nc2cccc3nsnc23)cc1` stands -1.82%; under `Cc1oc(-c2cccc(Cl)c2)nc1CS(=O)(=O)CC(=O)NC(C)c1ccccc1` (stereo not drawn), 9.33%; under `Cc1nc(-c2ccc(C(=O)NC(CC(C)C)C(=O)NCC#N)cc2)cs1` (stereo not drawn), -5.64%.
The same measure for `Cc1ccc(C(CC(=O)N2CCNCC2)c2ccccc2)c(O)c1C` (stereo not drawn): 3.87%.
The same measure for `CC(=O)N1CCN(c2nc(-c3ccccc3)c3cc(C)ccc3n2)CC1`: -6.69%; for `CCOC(=O)c1cc2c(=O)n3ccccc3nc2n(CCOC)/c1=N\C(=O)CCc1ccccc1`: -0.363%; for `Cc1sc(NC(=O)C(F)(F)F)nc1C12CC3CC(CC(C3)C1)C2`: -5.49%.
For `COc1ccc(N2CCN(Cc3ccc(C(C)C)cc3)CC2)cc1`, the “% Inhibition @ 10 uM” value was 0.605%.
The same measure for `COCc1cc(CN2CCC(C)CC2)c(O)c2ncccc12`: -2.28%; for `Cc1ccc(C(=O)c2cnc3cc4c(cc3c2S(=O)(=O)c2ccccc2)OCCO4)cc1`: -8.2%.
`CC(C)CN1C(=O)c2ccccc2C(C(=O)NC(C)CCc2ccco2)C1c1cccs1` (stereo not drawn): the “% Inhibition @ 10 uM” value is recorded as 1.14%.
Under `COc1ccc(C2=NN(C(=O)c3cccs3)C(c3ccccc3F)C2)cc1OC` (stereo not drawn) stands 6.52%.
Under `CCC1(C)CC(=O)c2c(ccc3oc(C(=O)Nc4ccc(Br)cn4)c(C)c23)O1` (stereo not drawn) stands 1.22%; under `CC1CN(CC2CC3C=CC2C3)CC(C)O1` (stereo not drawn), 3.48%.
Regarding `CCOCCCNC(=O)/C(C#N)=C/c1c(Oc2ccccc2C)nc2ccccn2c1=O`, the “% Inhibition @ 10 uM” value is listed as 3.63%.
Under `Cc1cc(C)c2c(CC(=O)N3CCN(C)CC3)coc2c1` stands 1%; under `Cc1nnc(N2CCCC(C(=O)NC3CC3)C2)c2nn(-c3ccc(Cl)cc3)c(C)c12` (stereo not drawn), 11.8%; under `CCc1cc2c(C)cc(=O)oc2cc1OCc1ccccc1`, 10.5%.
Under `CCCC1=C(C(=O)OCC)C(c2ccccc2Cl)NC(=O)N1` (stereo not drawn) stands 0.345%; under `CN(Cc1ccccc1)C(=O)C1CCCN(c2ncnc3c2nc2n3CCCCC2)C1` (stereo not drawn), 0.244%; under `O=C(c1cnn2c1NC(c1ccccc1)CC2C(F)(F)F)N1CCCCC1` (stereo not drawn), -1.06%.
Turning to `CCC1=NN(c2ccccc2)C(=O)C(CC(=O)Nc2ccccc2)c2cc(OC)c(OC)cc21` (stereo not drawn), the “% Inhibition @ 10 uM” value turned out to be 3.31%.
Consider `COc1ccc(OCCSc2nc(O)c3ccccc3n2)cc1`, for which the “% Inhibition @ 10 uM” value is recorded as -4.39%.
The same measure for `CC(C)OCCCNC(=O)c1ccc2nc(N3CCCCC3)sc2c1`: 2.65%.
Take `O=C(NCc1ccccn1)C1CCN(c2ncnc3c2sc2cccc(F)c23)CC1`: the “% Inhibition @ 10 uM” value is given as -0.637%.
For `CCCCOc1ccc(S(=O)(=O)NCc2csc(C)n2)cc1`, the “% Inhibition @ 10 uM” value is -4.24%.
Regarding `CC1CCN(C(=O)c2cc3n(n2)C(C(F)(F)F)CC(c2ccccc2)N3)C(C)C1` (stereo not drawn), the “% Inhibition @ 10 uM” value is 2.79%.
Under `CCN(CCCNC(=O)Cn1cnc2onc(-c3ccc(F)cc3)c2c1=O)Cc1ccccc1` stands -4.74%; under `COc1ccc(-c2ccc3c(N)c(C(=O)Nc4ccc(C(C)=O)cc4)sc3n2)cc1`, 1.27%.
As for `Cc1ccsc1C(=O)NC(C)c1ccc2c(c1)OCO2` (stereo not drawn), the “% Inhibition @ 10 uM” value is -2.85%.
The same measure for `CC(C)NC(=O)CCCn1sc2ccccc2c1=O`: -3.53%.
Under `Cc1ccc(Cl)cc1NC(=O)CC1NC2CCCCC2NC1=O` (stereo not drawn) stands 3.8%; under `c1ccc(CCN2CCC(NC34CC5CC(CC(C5)C3)C4)CC2)cc1`, 2.1%.
The same measure for `O=C1NC(Nc2ccccc2C(=O)O)=N/C1=C\c1ccccc1`: 2.4%.
`CC1CC(C)CN(CCCNC(=O)C2CCN(C(=O)c3cc4sccc4n3C)CC2)C1` (stereo not drawn): the “% Inhibition @ 10 uM” value worked out at 0.137%.
As for `CC1(C)CC(O)=C/C(=N/CCCN2CCOCC2)C1`, the “% Inhibition @ 10 uM” value is -4.21%.
With `Cc1nc2nc(NC(=O)c3cccs3)nn2c(C)c1Cl`, the “% Inhibition @ 10 uM” value is recorded as -1.31%.
Under `COc1cc(S(=O)(=O)N2CCN(c3ccc(F)cc3)CC2)c(C)cc1C` stands -5.4%; under `COC(=O)C1=CN(Cc2cccs2)C=C(C(=O)OC)C1c1ccc(Cl)cc1`, -2.87%.
The same measure for `CC1=C(c2ccccc2)SC2=NCCCN21`: 4.41%; for `O=C(Cn1c(=O)n2ncnc2c2c3c(sc21)CCCC3)c1ccccc1`: -1.69%.
`Cc1ccc(-n2ccc3nc4c(c(N)c3c2=O)CCC4)cc1`: the “% Inhibition @ 10 uM” value was determined as 4.04%.
Under `CC(C)(CCC(=O)Nc1ccc(Cl)cc1Cl)C(=O)Nc1ccc(Cl)cc1Cl` stands -0.0372%; under `O=C(Nc1ccc2c(c1)OCCO2)C1CC2CCC1C2` (stereo not drawn), -4.21%; under `CCCCCCNC(=O)c1cc(OC)cc(OC)c1`, 2.23%.
The same measure for `Cc1ccc(C)c(S(=O)(=O)NCC(=O)Nc2nsc(-c3ccccc3)n2)c1`: -1.27%.
Under `O=C(Cn1cc(S(=O)(=O)Cc2ccccc2F)c2ccccc21)NCC1CCCO1` (stereo not drawn) stands -5.46%; under `CCCC1Cc2nc(Cl)c(C#N)cc2CO1` (stereo not drawn), 1.32%; under `Cc1ccc(NS(=O)(=O)c2ccc(C3CCCCC3)cc2)cc1`, -1.77%.
For the molecule `O=C(NCc1ccc(F)cc1)c1nnc(Cc2ccc(Cl)cc2)o1`, the “% Inhibition @ 10 uM” value is -5.29%.
For `Cc1ccc2onc(CNC(=O)NC(C)c3ccccc3)c2c1` (stereo not drawn), the “% Inhibition @ 10 uM” value was found to be 8.23%.
In the case of `COc1cc(C2CC3CC2C(C)C3(C)C)ccc1O` (stereo not drawn), the “% Inhibition @ 10 uM” value is given as 2.94%.
On to `C/C(=N\CCN1CCN(C(=O)c2ccccc2)CC1)C1=C(O)CC(C)(C)CC1=O`, for which the “% Inhibition @ 10 uM” value is reported as -0.522%.
